{"source": "the RNAGym collection of RNA variant scans (doi:10.1093/nar/gkz1192)", "parents": {"B1": {"name": "CPEB3 Ribozyme (parent)", "chain": "UAACAGGGGGCCACAGCAGAAGCGUUCACGUCGCAGCCCCUGUCAGAUUCUGGUGAAUCUGCGAAUUCUGCUGUAUAUCUC"}}, "note": "Read counts are not given, so values of variants with three or more changes are uncertain."}
{"variants_of": "B1", "assay": "self-cleavage, relative activity (ratio to wild type); higher = more cleavage; in vitro, sequencing", "procedure,_shortened": "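Barcoded CPEB3 ribozyme mutants, produced by rounds of error-prone PCR, self-cleaved while being transcribed with T7 RNA polymerase for 5 hours at 37°C and during a subsequent 15 min DNase I step before EDTA was added. Sequencing of template-switched cDNA on Illumina gave cleaved and total reads, and DNA sequencing assigned barcodes to variants. Each variant's relative activity is its cleaved/total read fraction divided by the unmutated ribozyme's fraction, averaged across three batches. A variant needed a minimum of 5 reads.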"}
{"variant": "A35G C68U U72C", "self-cleavage": 1.21}
{"variant": "C34A A35U U58A U72A", "self-cleavage": 0.13}
{"variant": "G33A U43C A45G", "self-cleavage": 0.5}
{"variant": "A35G C38U U72C", "self-cleavage": 1.45}
{"variant": "A35G U49C G55A U66A U74A", "self-cleavage": 0.45}
{"variant": "A35G U60A A75C U80C", "self-cleavage": 1.24}
{"variant": "A35G U58C U69C", "self-cleavage": 0.82}
{"variant": "A35G A47G U49A", "self-cleavage": 1}
{"variant": "A35G A45G U48C", "self-cleavage": 1.19}
{"variant": "G33C G46A C50U U80C", "self-cleavage": 0.4}
{"variant": "A35G U49C U54C U60C", "self-cleavage": 0.31}
{"variant": "G33U U41A U51A", "self-cleavage": 0.12}
{"variant": "A35G A45G U72C", "self-cleavage": 1.31}
{"variant": "A35G C50U U54A", "self-cleavage": 1.2}
{"variant": "A35G A56G U60A U74A", "self-cleavage": 1.18}
{"variant": "A35G G42U C71A", "self-cleavage": 0.12}
{"variant": "G33A G36A A56U A64G", "self-cleavage": 0.14}
{"variant": "A35G U54C U80C", "self-cleavage": 1.28}
{"variant": "A35G C37G U66C", "self-cleavage": 0.16}
{"variant": "A35G U58C A64G U66C U74A", "self-cleavage": 0.64}
{"variant": "G33C A35G U48C U54A U60C U66C A75G", "self-cleavage": 0.12}
{"variant": "C34A U76C C79A", "self-cleavage": 0.28}
{"variant": "A35C U67C G70U", "self-cleavage": 0.26}
{"variant": "C34U A57G A75G", "self-cleavage": 0.45}
{"variant": "A35G U41C U51A", "self-cleavage": 1.21}
{"variant": "G33U U41A A57G U80A", "self-cleavage": 0.23}
{"variant": "A35G U49A U72C", "self-cleavage": 1.08}
{"variant": "A35G A45G A64G", "self-cleavage": 1.25}
{"variant": "G33A U43A U58C U66C", "self-cleavage": 0.08}
{"variant": "A35G U49C U54C", "self-cleavage": 1.03}
{"variant": "A35G A56U A57G U80C", "self-cleavage": 1.23}
{"variant": "A35G U58A U74A", "self-cleavage": 1.35}
{"variant": "C34U U48C U69C", "self-cleavage": 0.09}
{"variant": "G33A U41C U60A U78C", "self-cleavage": 0.2}
{"variant": "C34U U41C A77U U78C", "self-cleavage": 0.24}
{"variant": "C34G U54C A57G", "self-cleavage": 0.14}
{"variant": "C34U A45U U60A", "self-cleavage": 0.28}
{"variant": "A35G U54A U69A", "self-cleavage": 1.23}
{"variant": "A35G A56G C81A", "self-cleavage": 1.3}
{"variant": "A35G G46U A57G", "self-cleavage": 0.33}
{"variant": "A35G G36A A47C U49C U60G", "self-cleavage": 0.08}
{"variant": "A35G C39U G46A A64G", "self-cleavage": 0.43}
{"variant": "A35G U51G U58C U78A", "self-cleavage": 1.11}
{"variant": "C34A A47G U80C", "self-cleavage": 0.26}
{"variant": "G33U C38U U48A U54A A56G A65G", "self-cleavage": 0.06}
{"variant": "A35G G63A U69C U72C", "self-cleavage": 0.74}
{"variant": "A35G U49C U80A", "self-cleavage": 0.93}
{"variant": "A35G G53A U54C U80C", "self-cleavage": 1.26}
{"variant": "A35G U41C U60C U76A", "self-cleavage": 1.08}
{"variant": "A35G U48C U76C", "self-cleavage": 1.23}
{"variant": "A35G U60C U69A", "self-cleavage": 0.87}
{"variant": "A35G C40U U51C U67C U74C", "self-cleavage": 0.49}
{"variant": "A35G U60A A64U", "self-cleavage": 0.44}
{"variant": "A35G U54A A57G A75U", "self-cleavage": 1.28}
{"variant": "G33A U60C U67C", "self-cleavage": 0.08}
{"variant": "C34A U43C A56U A65G", "self-cleavage": 0.13}
{"variant": "A35G U43C U51C A64G U76C", "self-cleavage": 1.08}
{"variant": "A35G G52A A64U G70A U80A", "self-cleavage": 0.45}
{"variant": "G33U A35G U49A U76A", "self-cleavage": 0.08}
{"variant": "A35G U54G U67C", "self-cleavage": 0.63}
{"variant": "C34A U54A A65G U66C", "self-cleavage": 0.18}
{"variant": "A35G U48C U78A", "self-cleavage": 0.8}
{"variant": "A35G U48A A75U", "self-cleavage": 1.13}
{"variant": "A35G U51C A57G U78A U80C", "self-cleavage": 1.3}
{"variant": "A35C A45G U49A U67A U78A", "self-cleavage": 0.08}
{"variant": "A35G U43C U72C", "self-cleavage": 1.23}
{"variant": "A35G G36A A45G U58C", "self-cleavage": 0.19}
{"variant": "A35G U67A U69A", "self-cleavage": 0.45}
{"variant": "G33U U43C A75G", "self-cleavage": 0.41}
{"variant": "G33A U66C U80A", "self-cleavage": 0.43}
{"variant": "A35G U41A G42U U54C U60A", "self-cleavage": 0.14}
{"variant": "A35G U51C C62A", "self-cleavage": 0.48}
{"variant": "C34U A35G A64U", "self-cleavage": 0.1}
{"variant": "A35G A64U U67G U72A", "self-cleavage": 0.25}
{"variant": "A35C A56C U69C U78C", "self-cleavage": 0.23}
{"variant": "A35G C37G U41C C59A U69A", "self-cleavage": 0.13}
{"variant": "C34G U41C U43A U69G U72G", "self-cleavage": 0.16}
{"variant": "G33A G36A U41A A47U C62A U80C", "self-cleavage": 0.1}
{"variant": "A35G U43C A56G U60C U69A A75G", "self-cleavage": 0.14}
{"variant": "A35G U54A U78A", "self-cleavage": 1.29}
{"variant": "A35G U54A U78C", "self-cleavage": 1.25}
{"variant": "A35G A45G A64U U78A", "self-cleavage": 0.62}
{"variant": "A35G U41A A45U U78G", "self-cleavage": 0.1}
{"variant": "G33A G53A U60G", "self-cleavage": 0.12}
